Experimental data from patent CN117843802A (BEILAI PHARMACEUTICAL CO LTD, dated 2024).

Target: T1, Human IL-17A重组蛋白 (IL-17A-His) (Human, UniProt Q16552 24-155, biotinylated (Biotin-IL-17A-His) in the ELISA of paragraph 259; site not stated)
T1 construct: Recombinant antigen expressed in E. coli BL21 from pET28a, purified on a nickel column; also called IL-17A抗原蛋白; IL-17抗原
T1 sequence: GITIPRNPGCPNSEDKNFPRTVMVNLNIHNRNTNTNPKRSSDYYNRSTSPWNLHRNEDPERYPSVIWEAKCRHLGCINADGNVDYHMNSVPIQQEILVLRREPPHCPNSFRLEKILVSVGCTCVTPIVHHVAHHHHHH
Assay: ELISA: antibody coated at 2 ug/mL, Biotin-IL-17A-His titrated from 10 ug/mL (5-fold, 7 points), HRP-Streptavidin

B1: 双价单域抗体(1-C11+1-G12) (Fc fusion)
chain: DVQLVESGGGLVQPGGSLRLSCAASESLLRLYAMGWYRQLPGQEREWVAIHTTSDTTNYRDSVKGRFTLSRDVATNTIYLQMTSLKPEDTAVYYCHVTSMRDSQNYWGQGTQVTVSSGGGGSGGGGSGGGGSEVQLVESGGGLVQPGGSLRLSCVAWGFSFSIYSVNWYRQAPGKERELVAGITKGGLKDYADSVKGRFTISRDNAKNAVYLRMNMLKPEDTAVYYCNAGRENGYWGQGTQVAVST[human IgG1 Fc not spelt out]
notes: also called 二价单域抗体; 串联抗体
EC50: 1.47 µg/mL
